{"source": "patent US20200325139A1", "about": "“NEW ANTIBIOTICS TARGETING MYCOBACTERIA” (priority 2017, published 2020)", "key": {"[1]": {"biological_target": "LdtMt2 (Mycobacterium tuberculosis, UniProt I6Y9J2)", "sequence (I6Y9J2 55-408)": "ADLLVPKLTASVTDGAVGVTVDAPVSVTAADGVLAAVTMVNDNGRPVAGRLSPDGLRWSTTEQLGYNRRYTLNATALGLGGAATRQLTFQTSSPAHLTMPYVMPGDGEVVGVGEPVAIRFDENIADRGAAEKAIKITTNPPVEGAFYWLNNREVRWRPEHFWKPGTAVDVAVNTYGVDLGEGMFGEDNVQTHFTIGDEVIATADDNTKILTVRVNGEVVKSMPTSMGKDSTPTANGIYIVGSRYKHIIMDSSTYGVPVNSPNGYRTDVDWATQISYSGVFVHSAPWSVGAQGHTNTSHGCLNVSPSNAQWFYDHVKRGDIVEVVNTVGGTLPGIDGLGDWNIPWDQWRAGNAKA", "test": "Inhibition of L,D-transpeptidase by DBOs, residual nitrocefin hydrolysis", "assay_type": "biochemical, M. tuberculosis", "details": "for Residual activity of LdtMt2 following pre-incubation: 260 min at 37° C."}, "[2]": {"biological_target": "BlaC (Mycobacterium tuberculosis, UniProt P9WKD3)", "sequence (P9WKD3 39-306)": "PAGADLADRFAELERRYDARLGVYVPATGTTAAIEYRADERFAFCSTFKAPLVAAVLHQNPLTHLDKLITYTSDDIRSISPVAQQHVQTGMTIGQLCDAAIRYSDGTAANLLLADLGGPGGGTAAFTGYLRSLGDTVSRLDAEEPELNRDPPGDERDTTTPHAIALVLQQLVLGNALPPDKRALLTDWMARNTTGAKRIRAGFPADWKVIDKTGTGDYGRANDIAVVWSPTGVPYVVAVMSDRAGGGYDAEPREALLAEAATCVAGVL", "test": "Carbamoylation of β-lactamase by DBOs, nitrocefin spectrophotometry", "assay_type": "biochemical", "details": "20° C., nitrocefin 100 μM, MES pH 6.4; highest DBO concentration 100 μM"}, "[3]": {"details": "Inhibitor/LdtMt2 molar ratio 1, enzyme 10 μM"}, "[4]": {"details": "Inhibitor/LdtMt2 molar ratio 2.5, enzyme 10 μM"}, "[5]": {"details": "Inhibitor/LdtMt2 molar ratio 5, enzyme 10 μM"}, "[6]": {"details": "Inhibitor/LdtMt2 molar ratio 10, enzyme 10 μM"}}, "note": "Where “and” joins values, the source holds several entries; their conditions need not be identical. Equal values may be shown once. For part of these data: The name of at least one read-out is uncertain. For at least one compound, name, drawing or mass did not settle the structure.", "data": [{"smiles": "NC(=O)[C@@H]1CC[C@@H]2CN1C(=O)N2OS(=O)(=O)O", "note": "[Avibactam, reference compound]", "values": [{"measurement": "Residual activity of LdtMt2 following pre-incubation", "setting": "[1]; [3]", "value": 58.1, "unit": "%"}, {"measurement": "Residual activity of LdtMt2 following pre-incubation", "setting": "[1]; [4]", "value": 19.8, "unit": "%"}, {"measurement": "Residual activity of LdtMt2 following pre-incubation", "setting": "[1]; [5]", "value": 4.1, "unit": "%"}, {"measurement": "Residual activity of LdtMt2 following pre-incubation", "setting": "[1]; [6]", "value": 1.1, "unit": "%"}, {"measurement": "Residual activity of LdtMt2 following pre-incubation", "setting": "[1]; Inhibitor/LdtMt2 molar ratio 20 (DBO 200 μM, enzyme 10 μM)", "value": "< 3% and 1.1%"}]}, {"smiles": "O=C1N2C[C@@H](CC[C@H]2Cn2cc(CN3CCOCC3)nn2)N1OS(=O)(=O)[O-].[Na+]", "note": "[Compound 1a.i.11]", "values": [{"measurement": "Residual activity of LdtMt2 following pre-incubation", "setting": "[1]; [3]", "value": 94.0, "unit": "%"}, {"measurement": "Residual activity of LdtMt2 following pre-incubation", "setting": "[1]; [4]", "value": 91.7, "unit": "%"}, {"measurement": "Residual activity of LdtMt2 following pre-incubation", "setting": "[1]; [5]", "value": 89.6, "unit": "%"}, {"measurement": "Residual activity of LdtMt2 following pre-incubation", "setting": "[1]; [6]", "value": 84.5, "unit": "%"}]}, {"smiles": "COCc1cn(C[C@@H]2CC[C@@H]3CN2C(=O)N3OS(=O)(=O)[O-])nn1.[Na+]", "note": "[Compound 1a.i.13]", "values": [{"measurement": "Residual activity of LdtMt2 following pre-incubation", "setting": "[1]; [3]", "value": 92.3, "unit": "%"}, {"measurement": "Residual activity of LdtMt2 following pre-incubation", "setting": "[1]; [4]", "value": 85.4, "unit": "%"}, {"measurement": "Residual activity of LdtMt2 following pre-incubation", "setting": "[1]; [5]", "value": 78.8, "unit": "%"}, {"measurement": "Residual activity of LdtMt2 following pre-incubation", "setting": "[1]; [6]", "value": 53.4, "unit": "%"}, {"measurement": "Carbamoylation efficacy of β-lactamase BlaC", "setting": "[2]", "value": "<5 × 10^0 M^−1 s^−1"}]}, {"smiles": "O=C(O)CCc1cn(C[C@@H]2CC[C@@H]3CN2C(=O)N3OS(=O)(=O)[O-])nn1.[Na+]", "note": "[Compound 1a.i.14]", "values": [{"measurement": "Residual activity of LdtMt2 following pre-incubation", "setting": "[1]; [3]", "value": 94.7, "unit": "%"}, {"measurement": "Residual activity of LdtMt2 following pre-incubation", "setting": "[1]; [4]", "value": 93.8, "unit": "%"}, {"measurement": "Residual activity of LdtMt2 following pre-incubation", "setting": "[1]; [5]", "value": 93.5, "unit": "%"}, {"measurement": "Residual activity of LdtMt2 following pre-incubation", "setting": "[1]; [6]", "value": 91.3, "unit": "%"}, {"measurement": "Carbamoylation efficacy of β-lactamase BlaC", "setting": "[2]", "value": "<5 × 10^0 M^−1 s^−1"}]}, {"smiles": "O=C1N2C[C@@H](CC[C@H]2Cn2cc(-c3ccccc3)nn2)N1OS(=O)(=O)[O-].[Na+]", "note": "[Compound 1a.i.16]", "values": [{"measurement": "Residual activity of LdtMt2 following pre-incubation", "setting": "[1]; [3]", "value": 82.8, "unit": "%"}, {"measurement": "Residual activity of LdtMt2 following pre-incubation", "setting": "[1]; [4]", "value": 69.9, "unit": "%"}, {"measurement": "Residual activity of LdtMt2 following pre-incubation", "setting": "[1]; [5]", "value": 50.0, "unit": "%"}, {"measurement": "Residual activity of LdtMt2 following pre-incubation", "setting": "[1]; [6]", "value": 29.0, "unit": "%"}, {"measurement": "Inhibition of L,D-transpeptidase LdtMt2 (in words)", "setting": "[1]; residual rate of nitrocefin hydrolysis after pre-incubation", "value": "similarly active"}, {"measurement": "Carbamoylation efficacy of β-lactamase BlaC", "setting": "[2]", "value": "<5 × 10^0 M^−1 s^−1"}]}, {"smiles": "O=C1N2C[C@@H](CC[C@H]2Cn2cc(-c3cccnc3)nn2)N1OS(=O)(=O)O", "note": "[Compound 1a.i]", "values": [{"measurement": "Residual activity of LdtMt2 following pre-incubation", "setting": "[1]; [3]", "value": 89.5, "unit": "%"}, {"measurement": "Residual activity of LdtMt2 following pre-incubation", "setting": "[1]; [4]", "value": 83.1, "unit": "%"}, {"measurement": "Residual activity of LdtMt2 following pre-incubation", "setting": "[1]; [5]", "value": 66.3, "unit": "%"}, {"measurement": "Residual activity of LdtMt2 following pre-incubation", "setting": "[1]; [6]", "value": 47.0, "unit": "%"}]}, {"smiles": "C[Si](C)(C)c1cn(C[C@@H]2CC[C@@H]3CN2C(=O)N3OS(=O)(=O)O)nn1", "note": "[Compound 2a.i]", "values": [{"measurement": "Residual activity of LdtMt2 following pre-incubation", "setting": "[1]; [3]", "value": 94.9, "unit": "%"}, {"measurement": "Residual activity of LdtMt2 following pre-incubation", "setting": "[1]; [4]", "value": 89.8, "unit": "%"}, {"measurement": "Residual activity of LdtMt2 following pre-incubation", "setting": "[1]; [5]", "value": 84.8, "unit": "%"}, {"measurement": "Residual activity of LdtMt2 following pre-incubation", "setting": "[1]; [6]", "value": 81.9, "unit": "%"}]}]}
